Measured values reported in the supplement of paper PMC4604168 (melanoma cell lines).
This is one part of the list. Most values come without repeats; read them as rough.

Legend:
Test in all cases: cell count relative to DMSO control; melanoma cells; higher = more viable cells
Conditions in all cases: library dose: standard library concentration; 72 h
G361 = test system: G361
IPC-298 = test system: IPC-298
IST-MEL1 = test system: IST-MEL1
LB2518-MEL = test system: LB2518-MEL
LOXIMVI = test system: LOXIMVI
MEL-HO = test system: MEL-HO
MZ2-MEL = test system: MZ2-MEL
MeWo = test system: MeWo
RPMI7951 = test system: RPMI7951
RVH-421 = test system: RVH-421
SkMel28 = test system: SkMel28
SkMel2 = test system: SkMel2
SkMel30 = test system: SkMel30
SkMel5 = test system: SkMel5
UACC257 = test system: UACC257
UACC62 = test system: UACC62
WM115 = test system: WM115
WM1716 = test system: WM1716
WM1745 = test system: WM1745
WM3526 = test system: WM3526
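Also: cells treated in 1,536-well plates, then fixed and DAPI-stained, with nuclei counted from automated high-throughput microscope images.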

Compound | cell count (G361) [%] | cell count (IPC-298) [%] | cell count (IST-MEL1) [%] | cell count (LB2518-MEL) [%] | cell count (LOXIMVI) [%] | cell count (MEL-HO) [%] | cell count (MZ2-MEL) [%] | cell count (MeWo) [%] | cell count (RPMI7951) [%] | cell count (RVH-421) [%] | cell count (SkMel28) [%] | cell count (SkMel2) [%] | cell count (SkMel30) [%] | cell count (SkMel5) [%] | cell count (UACC257) [%] | cell count (UACC62) [%] | cell count (WM115) [%] | cell count (WM1716) [%] | cell count (WM1745) [%] | cell count (WM3526) [%]
C[C@@H]1CCN(C(=O)CC#N)C[C@@H]1N(C)c1ncnc2[nH]ccc12 + O=C(Nc1ccccc1)c1cc([N+](=O)[O-])ccc1Cl [GW9662] (first compound 5 µM, partner dose 10 µM) | 75.2 | 112 | 98.5 | 29.8 | 28.1 | 78.9 | 75.5 | 74.5 | 94.3 | 78.9 | 58 | 87 | 81.2 | 83.9 | 75.5 | 62.1 | 72.3 | 84.3 | 68.3 | 96.5
Cn1cncc1[C@@](N)(c1ccc(Cl)cc1)c1ccc2c(c1)c(-c1cccc(Cl)c1)cc(=O)n2C [tipifarnib] + CCN(CC)CCCCNc1ncc2cc(-c3cc(OC)cc(OC)c3)c(NC(=O)NC(C)(C)C)nc2n1 [PD173074] (first compound 0.05 µM, partner dose 0.5 µM) | 80.8 | 102 | 91.8 | 88.1 | 86.1 | 93.2 | 98.8 | 85.6 | 71.7 | 76.8 | 90.4 | 71.8 | 93.1 | 90.3 | 121 | 77 | 88 | 61.2 | 78.4 | 74.4
COc1cc(Nc2ncc(F)c(Nc3ccc4c(n3)NC(=O)C(C)(C)O4)n2)cc(OC)c1OC [Tamatinib] + O=C1NC(=O)/C(=C/c2ccc(-c3ccc(F)cc3O)o2)S1 [AS252424] (first compound 2 µM, partner dose 5 µM) | 57.3 | 75.9 | 88 | 70 | 34.4 | 59.1 | 73.8 | 61.7 | 33.1 | 86.7 | 67.9 | 72.8 | 91.5 | 46.8 | 86.1 | 85.1 | 74.8 | 80.1 | 29.8 | 63.6
O=C(Nc1cccc(Cl)c1)Nc1ncc(CCNc2ncnc3ccsc23)s1 + COC(=O)c1sccc1S(=O)(=O)Nc1ccc(Nc2ccccc2)cc1OC [GSK0660] (first compound 0.004 µM, partner dose 5 µM) | 43.5 | 60.5 | 43.3 | 77.6 | 94.7 | 63.5 | 64.4 | 56.6 | 48.8 | 58.3 | 42.9 | 66.4 | 80.8 | 74.6 | 61.1 | 83.7 | 31.8 | 44.7 | 78.8 | 46.9
O=c1[nH]nc(Sc2ncc([N+](=O)[O-])s2)n1-c1ccc2c(c1)OCCO2 + CCCS(=O)(=O)Nc1ccc(F)c(C(=O)c2c[nH]c3ncc(Cl)cc23)c1F [PLX4720] (first compound 1 µM, partner dose 0.4 µM) | 69.4 | 84.5 | 96.6 | 121 | 52.6 | 99.4 | 114 | 101 | 82.5 | 88.3 | 36.3 | 124 | 93.8 | 76 | 99.2 | 55.7 | 75.7 | 80 | 95.3 | 67.6
C[C@@H]1CCN(C(=O)CC#N)C[C@@H]1N(C)c1ncnc2[nH]ccc12 + O=C(Nc1cccc(Cl)c1)Nc1ncc(CCNc2ncnc3ccsc23)s1 [SNS314] (first compound 5 µM, partner dose 0.004 µM) | 78.1 | 104 | 70.6 | 88.4 | 76.7 | 87.3 | 92.9 | 84.5 | 64.8 | 75.8 | 50.6 | 75.4 | 105 | 112 | 95.1 | 96.4 | 64.3 | 72.2 | 79.2 | 78.7
CC1(C)NC(=O)N(c2ccc([N+](=O)[O-])c(C(F)(F)F)c2)C1=O [nilutamide] + COc1ccc2c(c1)CCC1C2CCC2(C)C(NCCCCCCN3C(=O)C=CC3=O)CCC12 [U73122] (first compound 5 µM, partner dose 2 µM) | 85 | 98 | 99.4 | 110 | 77.2 | 108 | 97.8 | 62.5 | 43.7 | 105 | 93.3 | 108 | 96.6 | 89.9 | 93.2 | 82.7 | 87.9 | 96.6 | 85.5 | 105
O=C(O)c1ccc(-c2c[nH]c3ncc(-c4ccccc4)cc23)cc1C1CCCC1 + O=C1NC(=O)/C(=C/c2ccc(-c3ccc(F)cc3O)o2)S1 [AS252424] (first compound 0.8 µM, partner dose 5 µM) | 50.5 | 77 | 69.6 | 95 | 89.4 | 68.8 | 79.5 | 78.6 | 76.7 | 76.2 | 55.4 | 67.6 | 105 | 80.5 | 77.1 | 118 | 104 | 85.8 | 66.3 | 79.4
Cn1cncc1[C@@](N)(c1ccc(Cl)cc1)c1ccc2c(c1)c(-c1cccc(Cl)c1)cc(=O)n2C [tipifarnib] + COC(=O)c1sccc1S(=O)(=O)Nc1ccc(Nc2ccccc2)cc1OC [GSK0660] (first compound 0.05 µM, partner dose 5 µM) | 80.9 | 83.7 | 81.3 | 112 | 107 | 102 | 85.1 | 81.9 | 80.5 | 72.5 | 56.5 | 67.5 | 92.9 | 73 | 89.1 | 92.7 | 75.5 | 66.8 | 82.3 | 77.1
Cn1cncc1[C@@](N)(c1ccc(Cl)cc1)c1ccc2c(c1)c(-c1cccc(Cl)c1)cc(=O)n2C [tipifarnib] + COc1cc2ncnc(Nc3ccc(Oc4ccccc4)cc3)c2cc1OC [SrcI1] (first compound 0.05 µM, partner dose 10 µM) | 29.5 | 62.7 | 60.5 | 64.7 | 68.2 | 79.5 | 76.4 | 55.6 | 30.9 | 94.1 | 42.1 | 60.8 | 87.4 | 64.9 | 87 | 68.7 | 51 | 71 | 56.7 | 44
C[C@@H]1CCN(C(=O)CC#N)C[C@@H]1N(C)c1ncnc2[nH]ccc12 + COc1ccc2c(c1)CCC1C2CCC2(C)C(NCCCCCCN3C(=O)C=CC3=O)CCC12 [U73122] (first compound 5 µM, partner dose 2 µM) | 98.8 | 99.5 | 96.1 | 101 | 88.3 | 95.9 | 85.1 | 92.2 | 86.8 | 91.6 | 91.1 | 96.2 | 93.9 | 92.2 | 102 | 77.6 | 85.2 | 107 | 83.8 | 99.5
O=C(Nc1cccc(Cl)c1)Nc1ncc(CCNc2ncnc3ccsc23)s1 + NCC(=O)Nc1ccc(-n2nc(C(F)(F)F)cc2-c2ccc3c(ccc4ccccc43)c2)cc1 [OSU03012] (first compound 0.004 µM, partner dose 5 µM) | 67.5 | 59.9 | 49.3 | 65.4 | 69.8 | 79.6 | 72 | 70.3 | 53.2 | 80 | 22.9 | 35.4 | 50.5 | 55.4 | 62.8 | 70.6 | 38.6 | 60.3 | 58.3 | 41.8
COc1cc(Nc2ncc(F)c(Nc3ccc4c(n3)NC(=O)C(C)(C)O4)n2)cc(OC)c1OC [Tamatinib] + O=C(O)c1ccc(-c2c[nH]c3ncc(-c4ccccc4)cc23)cc1C1CCCC1 [GSK650394] (first compound 2 µM, partner dose 0.8 µM) | 62.9 | 73.8 | 44.3 | 90 | 37.2 | 57.8 | 81.6 | 69.6 | 42.5 | 69.3 | 61.3 | 78 | 91.7 | 39.2 | 74.2 | 83.9 | 77.9 | 90.6 | 46.8 | 69.1
O=c1[nH]nc(Sc2ncc([N+](=O)[O-])s2)n1-c1ccc2c(c1)OCCO2 + O=C(O)c1ccc(-c2c[nH]c3ncc(-c4ccccc4)cc23)cc1C1CCCC1 [GSK650394] (first compound 1 µM, partner dose 0.8 µM) | 85.7 | 99.4 | 68.1 | 132 | 79.5 | 75.4 | 116 | 83.6 | 82.6 | 95.5 | 76.8 | 71.3 | 96.5 | 98.9 | 88.8 | 86 | 87.8 | 89.3 | 91 | 77.1
C[C@@H]1CCN(C(=O)CC#N)C[C@@H]1N(C)c1ncnc2[nH]ccc12 + COc1ccc(COc2ccc(Cc3cnc(N)nc3N)cc2OC)cc1 [GW2580] (first compound 5 µM, partner dose 5 µM) | 97.7 | 104 | 106 | 142 | 97.6 | 107 | 91.3 | 94.3 | 69.9 | 85.1 | 124 | 89.4 | 93.8 | 64.1 | 81.4 | 124 | 93.5 | 100 | 79.7 | 92
COc1cc(Nc2ncc(F)c(Nc3ccc4c(n3)NC(=O)C(C)(C)O4)n2)cc(OC)c1OC [Tamatinib] + CCCCCCCCCCCC1=C(O)C(=O)C=C(O)C1=O [Embelin] (first compound 2 µM, partner dose 6 µM) | 77.7 | 74.8 | 68.2 | 56 | 36.8 | 70.3 | 62.5 | 93.4 | 55.8 | 72 | 84.3 | 77.7 | 86.2 | 65.4 | 93.1 | 88.5 | 74.7 | 84.8 | 36.8 | 88.9
Cn1cncc1[C@@](N)(c1ccc(Cl)cc1)c1ccc2c(c1)c(-c1cccc(Cl)c1)cc(=O)n2C [tipifarnib] + N#Cc1c(O)c2c(-c3ccc(-c4ccccc4O)cc3)csc2[nH]c1=O [A769662] (first compound 0.05 µM, partner dose 10 µM) | 81.1 | 88.3 | 86.9 | 67.1 | 80.8 | 90.4 | 82 | 90 | 104 | 81.2 | 71 | 79.7 | 88 | 76.7 | 110 | 92.2 | 75.8 | 73.4 | 88.3 | 99.7
